The text below walks through data of ChEMBL document CHEMBL4513135, “CO-ADD screening of IQOG CSIS (Spain) compounds”.

The list shows a part of the results. Measured potencies and affinities stand elsewhere.

Broadly, the Inhibition is the drop in the measured response relative to a control, in per cent.

In the assay the test system is Acinetobacter baumannii. Conditions: Concentration 32 ug.mL-1; ASSAY_TEST Inhibition of Bacterial Growth; detection method Absorption (OD600); MEDIA CAMHB; plate type 384well; NBS; CORNING #3640; time 18 hr.
For `CCC(Cc1ccccc1)NNC(=O)c1cc2ccccc2[nH]1` (stereo unspecified), the Inhibition was -6.2%.

As for `Cl.ClCCCC1CCNCC1`, the Inhibition came to 2.53%.

On to `Cc1ccc(C=C2N=C(c3ccccc3)OC2=O)cc1`, for which the Inhibition is reported as -5.87%.

Regarding `O=C1C=C(Nc2ccccc2)C(=O)N1c1ccccc1`, the Inhibition is reported as -1.13%.

`Cl.N#Cc1cc(C#N)c(N2CCCC2)nc1Cl`: the Inhibition is 10.36%.

`NC(=O)N/N=C/c1c[nH]c2ccccc12`: the Inhibition is on record as 16.25%.

For `C#CCN(C)Cc1cc2cc(OC)ccc2n1C`, the Inhibition is 13.79%.

As for `COc1ccccc1C1C(C#N)=C(N)Oc2ccc3ccccc3c21` (stereo unspecified), the Inhibition turned out to be 6.33%.

Regarding `O=Cc1cc2ccccc2nc1Cl`, the Inhibition is on record as 14.13%.

`NNC(=O)CCc1c[nH]c2ccccc12`: the Inhibition is recorded as 2.17%.

For `CN1C/C(=C\Br)n2c1c(C#N)cc(C#N)c2=O`, the Inhibition amounted to 0.22%.

For the compound `C#CCN1CCc2nc3nc(N4CCCC4)c(C#N)cc3c(N)c2C1`, the Inhibition turned out to be 10.98%.

As to `O=C(N/N=C/c1ccc([N+](=O)[O-])cc1)c1cc2ccccc2[nH]1`, the Inhibition is given as -4.46%.

Consider `C#CCN(C)Cc1cc2cc(OCCCC3CCN(Cc4ccc(C#N)cc4)CC3)ccc2n1C`, for which the Inhibition came to 2.4%.

As to `CC(=O)O[C@H]1CC[C@H](NC(=O)c2ccccc2)CC1`, the Inhibition turned out to be 15.82%.

As to `O=C(NNCc1c[nH]c2ccccc12)c1cccc2ccccc12`, the Inhibition was -1.13%.

With `COc1ccc2cc(C3C4=C(CC(C)(C)CC4=O)Oc4nc5c(c(N)c43)CCCCC5)c(Cl)nc2c1` (stereo unspecified), the Inhibition is given as -3.29%.

On to `CC(=O)NCCc1ccccc1`, for which the Inhibition is on record as 9.72%.

`N#Cc1c(N)nc(O)c(C#N)c1-c1ccccc1`: the Inhibition is -5.3%.

For `CCOC(=O)c1cc(C#N)c(N)nc1C`, the Inhibition worked out at 8.15%.

For `Nc1c2c(nc3nc4ccccc4nc13)CCCC2`, the Inhibition amounted to 14.71%.

Turning to `CC1Cc2c(nc3c(c2N)CCCC3)NC1=O` (stereo unspecified), the Inhibition was determined as 9.25%.

`C#CCNC.O=C(O)C(=O)O`: the Inhibition came out at 7.06%.

Regarding `CNCc1cc2cc(OC)ccc2n1C.Cl`, the Inhibition is listed as -6.04%.

Consider `O=Cc1ccc(OCCO[N+](=O)[O-])cc1`, for which the Inhibition was 14.4%.

In the case of `N#Cc1c(Cl)nc(N2CCCCC2)c(C#N)c1-c1ccccc1`, the Inhibition is recorded as 10.35%.

Turning to `CC(C)(C)OC(=O)N[C@H]1CC[C@H](O)CC1`, the Inhibition came out at 6.83%.

For the compound `c1ccc(CNc2ncnc3c2cnn3-c2ccccc2)cc1`, the Inhibition is recorded as -10.8%.

For `COc1nc2nc3c(c(N)c2cc1C#N)CN(Cc1ccccc1)CC3`, the Inhibition was determined as 14.85%.

Turning to `COc1ccc2cc(C3C(C(C)=O)=C(C)Oc4nc5c(c(N)c43)CCC5)c(Cl)nc2c1` (stereo unspecified), the Inhibition is on record as -5.64%.

Regarding `COc1ccc2c(c1)cc(C(=O)Nc1ccccc1)n2C`, the Inhibition was determined as 9.71%.

In the case of `COc1ccc2c(c1)cc(C(=O)O)n2C`, the Inhibition is on record as 2.22%.

In the case of `CCCC(C)NNC(=O)Cc1c[nH]c2ccccc12` (stereo unspecified), the Inhibition is listed as -5.32%.

Consider `CC(C)(C)OC(=O)Nc1ccc(Cl)cn1`, for which the Inhibition was found to be 12.13%.

With `Cl.OCCCC1CCNCC1`, the Inhibition came out at 11.88%.

Take `N#Cc1c(N)nc(N)c(C#N)c1-c1ccccc1`: the Inhibition is 10.34%.

With `CCOC(=O)CCc1c[nH]c2ccccc12`, the Inhibition is -3.64%.

For `COc1cc(C2C(C#N)=C(N)Oc3ccc4ccccc4c32)ccc1O` (stereo unspecified), the Inhibition amounted to 9.15%.

Take `COc1ccccc1C1c2ccc3ccccc3c2OC(=NBr)C1(Br)C#N` (stereo unspecified): the Inhibition was determined as 4.29%.

For the compound `CCOC(=O)C1=C(C)NC(N)=C(C#N)C1c1ccc(OC)cc1` (stereo unspecified), the Inhibition was 13.46%.

For `COc1cccc(-c2c(C#N)c(=O)oc3c2ccc2ccccc23)c1`, the Inhibition is 16.15%.

For `Cn1c(C(=O)O)cc2cc(OCCCC3CCN(Cc4ccccc4)CC3)ccc21`, the Inhibition came to 7.39%.

In the case of `CC(=O)Oc1ccc(C=C2N=C(C)OC2=O)cc1`, the Inhibition is recorded as -3.67%.

Turning to `N#Cc1cc(C#N)c(NCc2ccccc2)nc1N`, the Inhibition is -3.71%.

Turning to `C#CCN(C)c1ncc(C#N)c(N)n1`, the Inhibition was 11.11%.

On to `COc1ccccc1C1c2c(ccc3ccccc23)OC(=N)C1(Br)C#N` (stereo unspecified), for which the Inhibition was 4.2%.

As to `COc1ccc(C2c3c(nc4c(c3N)CCCC4)Oc3ccc4ccccc4c32)c(OC)c1` (stereo unspecified), the Inhibition is listed as -10.58%.

For the compound `O=C1NC(=S)N/C1=C\c1ccccc1`, the Inhibition is on record as -2.24%.

Regarding `N#Cc1cc(C#N)c(N2CCCC2)nc1N1CCCC1`, the Inhibition is given as -0.29%.

Regarding `N#Cc1cc2c(N)c3c(nc2nc1Cl)CCCC3`, the Inhibition was determined as 0.13%.

For the compound `CCOC(=O)C1=C(C)Oc2nc3c(c(N)c2C1c1ccc(O)c(OC)c1)CCC3` (stereo unspecified), the Inhibition stood at 12.14%.

As to `COc1cccc(C=C2N=C(c3ccccc3)OC2=O)c1OC(C)=O`, the Inhibition is recorded as -1.43%.

For the compound `O=C(Cc1c[nH]c2ccccc12)N/N=C/c1ccco1`, the Inhibition is on record as -4.85%.

As for `CCOC(=O)c1c(C)nc(NCC2CCN(Cc3ccccc3)CC2)c(C#N)c1-c1ccccc1`, the Inhibition was 6.42%.

In the case of `C/C=C(/C#N)C(=O)OC`, the Inhibition is recorded as -6.24%.

As for `COc1cccc(C2C(C#N)=C(N)Oc3[nH]nc(C)c32)c1` (stereo unspecified), the Inhibition is listed as -7.6%.

On to `CNCc1cc2cc(OCc3ccccc3)ccc2n1C.Cl`, for which the Inhibition is recorded as -15.49%.

As to `CCOC(=O)c1c(C)nc2nc3c(c(N)c2c1-c1ccccc1OC)CCCCC3`, the Inhibition is on record as 8.29%.

Regarding `Cc1ccc(C(O)SNNc2ncnc3c2c(C)nn3-c2ccccc2)cc1` (stereo unspecified), the Inhibition is listed as 6.96%.

In the case of `COc1ccc(C2C(C#N)=C(N)Oc3c2ccc2ccccc32)cc1` (stereo unspecified), the Inhibition was 10.2%.

For the compound `CC1=N/C(=C(\C)c2ccccc2)C(=O)O1`, the Inhibition was -4.05%.

Take `C#CCn1c(N)c(C#N)c2cc(O)ccc21`: the Inhibition was 0.68%.

For `C#CCN(C)c1cc(Cl)nc(N)n1`, the Inhibition is reported as -12.57%.

Consider `Cc1ccc2nc(Cl)c(/C=N/NCc3ccccc3)cc2c1`, for which the Inhibition turned out to be 2.93%.

Turning to `Br.C#CCNCc1ccccc1`, the Inhibition is recorded as 8.32%.

For the compound `COc1ccc(C=C2N=C(c3ccccc3)OC2=O)cc1`, the Inhibition is 4.3%.

Consider `CSC1=NC2(CC2c2ccccc2)C(=O)N1` (stereo unspecified), for which the Inhibition stood at 1.07%.

With `C=C1CN(C)c2c(C#N)c(-c3ccccc3)c(C#N)c(=O)n21`, the Inhibition worked out at 12.7%.

As for `C#CCN(C)Cc1cc2cc(OCCCCC3CCN(Cc4ccccc4)CC3)ccc2n1C.Cl`, the Inhibition amounted to 4.02%.

For the compound `COc1ccc(-c2cc(-c3cc4c(OC)ccc(OC)c4nc3Cl)cc(=O)[nH]2)cc1`, the Inhibition came out at 5.76%.

For `O=C(N/N=C/Cc1ccccc1)c1cc2ccccc2[nH]1`, the Inhibition is -4.91%.

As to `Cn1ccnc1C1C2=C(CC(C)(C)CC2=O)Oc2nc3c(c(N)c21)CCC3` (stereo unspecified), the Inhibition is listed as 0.16%.

As for `O=C1SC(SCc2ccccc2)=NC1=Cc1cccc(OCc2ccccc2)c1`, the Inhibition is 6.57%.

Regarding `O=C(Cc1c[nH]c2ccccc12)NN=Cc1ccccc1`, the Inhibition is -5.11%.

As to `C#CCN1CCc2nc3nc(NC4CCN(Cc5ccccc5)CC4)c(C#N)cc3c(N)c2C1`, the Inhibition is 7.08%.

Regarding `N#Cc1c(N)nc(N2CCOCC2)c(C#N)c1-c1ccccc1`, the Inhibition is recorded as 0.04%.

With `C1CNCCNCCNCCNC1`, the Inhibition is on record as -3.14%.

Consider `CCOC(=O)C1=C(C)OC(N)=C(C#N)C1c1ccc(OC)c(OC)c1` (stereo unspecified), for which the Inhibition came to 13.07%.

Turning to `COc1ccccc1C1C(C#N)=C(N)Oc2c1ccc1ccccc21` (stereo unspecified), the Inhibition was -0.01%.

With `COc1ccccc1-c1c(C#N)c(=O)oc2c1ccc1ccccc12`, the Inhibition is on record as 2.05%.

On to `Cc1ccc(C(O)SNNc2nc(C)nc3c2c(C)nn3-c2ccccc2)cc1` (stereo unspecified), for which the Inhibition was 0.66%.

For the compound `N#CC1(Br)C(=NBr)Oc2c(ccc3ccccc23)C1c1ccc([N+](=O)[O-])cc1` (stereo unspecified), the Inhibition is listed as -0.55%.

Turning to `Cc1nc2c(cc1C#N)c(N)nn2C`, the Inhibition worked out at 6.29%.

`CCOC(=O)/C(=C\c1ccccc1)C(=O)c1ccccc1`: the Inhibition turned out to be 0.94%.

As to `Cn1ccnc1C1C2=C(CC(C)(C)CC2=O)Oc2nc3c(c(N)c21)CCCC3` (stereo unspecified), the Inhibition is -5.19%.

`Cc1cnc2ccc(Br)cn12`: the Inhibition was 7.31%.

In the case of `CCOC(=O)C1=C(C)Nc2nc3c(c(N)c2C1c1ccc([N+](=O)[O-])cc1)CCCC3.Cl` (stereo unspecified), the Inhibition is -16.8%.

For the compound `CC(=O)Nc1nc(Cl)c(C#N)c(-c2ccccc2)c1C#N`, the Inhibition worked out at 4.16%.

Turning to `N#Cc1c(N)nc(N2CCCCC2)c(C#N)c1-c1ccccc1`, the Inhibition was found to be 0.37%.

As for `Cc1ccc(/C=C(\C#N)C(=O)c2ccccc2)cc1`, the Inhibition is 9.44%.

`CC(=O)/C=C/C1CCN(Cc2ccccc2)CC1`: the Inhibition came out at 3.28%.

In the case of `N#Cc1cc(C#N)c(NCCCC2CCN(Cc3ccccc3)CC2)nc1N`, the Inhibition is recorded as -7.2%.

`CC(=O)N1CC(=O)NC1=S`: the Inhibition is listed as -11.58%.

In the case of `C#CCN1CCc2nc3nc(N(C)C)c(C#N)cc3c(N)c2C1`, the Inhibition is 15.96%.

Turning to `C#CCN(C)c1nc(NCCCCC2CCN(Cc3ccccc3)CC2)c(C#N)cc1C#N`, the Inhibition is on record as -3.07%.

Take `N#Cc1cc(C#N)c(NCCCCC2CCN(Cc3ccccc3)CC2)nc1N`: the Inhibition is listed as -3.11%.

Take `CC(C)(C)OC(=O)Nc1ccc(Br)cn1`: the Inhibition was -11.22%.

As for `O=C1OC(c2ccccc2)=NC12CC2c1ccc([N+](=O)[O-])cc1` (stereo unspecified), the Inhibition is reported as -7.69%.

Turning to `COc1ccc2cc(C3C4=C(CC(C)(C)CC4=O)Oc4nc5c(c(N)c43)CCCC5)c(Cl)nc2c1` (stereo unspecified), the Inhibition was 5.1%.

As for `Cl.Nc1c2c(nc3c1C(c1ccccc1)c1c(ccc4ccccc14)O3)CCCC2` (stereo unspecified), the Inhibition is listed as -1.7%.

For the compound `N#C/C(=C\c1ccccc1)C(=O)c1ccccc1`, the Inhibition turned out to be 1.46%.

Consider `NC(=O)c1cc2cc(OCc3ccccc3)ccc2[nH]1`, for which the Inhibition is on record as 12.15%.

On to `Nc1c2c(nc3c1c1ccccc1n3Cc1ccccc1)CCCC2`, for which the Inhibition was determined as 8.02%.

On to `Nc1c2c(nc3c1CC(c1c(Cl)cccc1Cl)C(=O)N3)CCCC2` (stereo unspecified), for which the Inhibition is reported as -12.75%.

As to `COc1nc2nc3c(c(N)c2cc1C#N)CCCC3`, the Inhibition is reported as 14.41%.

Take `Cn1cc(C(=O)NN)c2ccccc21`: the Inhibition is given as 7.79%.

In the case of `O=C(COc1ccc2ccccc2c1)NNCc1c[nH]c2ccccc12`, the Inhibition was 1.05%.

Consider `Nc1c2c(nc3c1C(c1ccccc1)c1ccc4ccccc4c1O3)CCCC2` (stereo unspecified), for which the Inhibition is given as -23.73%.

Regarding `CC1Cc2ccccc2N1/N=C/c1ccccc1` (stereo unspecified), the Inhibition is recorded as -9.9%.

As for `O=C(NCc1ccccc1)c1cc2ccccc2[nH]1`, the Inhibition amounted to 5.8%.

`C#CCNc1nc(NCCCC2CCN(Cc3ccccc3)CC2)c(C#N)cc1C#N.Cl`: the Inhibition is given as 14.78%.
